Laboratory results: PubChem BioAssay AID624417 (National Center for Advancing Translational Sciences (NCATS), 2012)
Hit rate of the full screen: of about 410,000 compounds, about 6,400 (1.6%) were called active. The shares of active, inactive and inconclusive entries below differ from those in the screen. Calls follow the shape of the dose curve; as a rule, active = well fitted inhibition curve with a large enough effect; inconclusive = small, poorly fitted or top-dose-only effect; inactive = no such curve, though single readings can be large or run the other way. Where the call is inconclusive, the potency comes from a doubtful curve fit.

molecular target: Glucagon-like peptide 1 receptor (Homo sapiens) (UniProt P43220); test: qHTS of GLP-1 Receptor Inverse Agonists (Inhibition Mode); settings: HEK293 GLP-1R CRE-luciferase, luminescence, 24 h, GLP-1R form is constitutively active; activity change, negative = inhibition: at 38.3 µM (top of the series) unless noted; also: nearly all actives have a fitted effect of over 55% in size
Method in brief: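 Assay principle: reduced luminescence from a cAMP-responsive reporter in HEK293 cells co-expressing a constitutively active GLP-1R. Conditions: 24 hr compound incubation, 37 deg C, 5% CO2.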
% is scaled to controls: 0 for no effect and ±100 for the full control effect; potency is read from the fitted curve at half-maximal effect; tags tell the direction and shape of the fitted curve.

UniProt P43220, sequence (P43220 whole entry, looked up): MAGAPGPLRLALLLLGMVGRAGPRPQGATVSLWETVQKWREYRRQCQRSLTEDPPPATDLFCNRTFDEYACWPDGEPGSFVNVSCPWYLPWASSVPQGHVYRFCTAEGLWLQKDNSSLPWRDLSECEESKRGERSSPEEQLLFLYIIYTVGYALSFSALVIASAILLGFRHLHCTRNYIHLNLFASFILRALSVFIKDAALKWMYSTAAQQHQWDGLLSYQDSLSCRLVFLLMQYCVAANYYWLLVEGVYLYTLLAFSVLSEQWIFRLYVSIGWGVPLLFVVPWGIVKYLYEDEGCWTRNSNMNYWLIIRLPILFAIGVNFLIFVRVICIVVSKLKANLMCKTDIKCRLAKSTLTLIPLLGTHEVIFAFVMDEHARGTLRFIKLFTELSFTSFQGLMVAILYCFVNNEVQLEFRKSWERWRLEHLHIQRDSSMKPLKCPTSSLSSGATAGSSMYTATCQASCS

Activity change, negative = inhibition, inactive:
C[C@@H]1CN([C@@H](C)CO)C(=O)CCCn2nncc2CO[C@@H]1CN(C)S(=O)(=O)c1ccc(-c2ccccc2)cc1 2.95%
CCn1c(-c2nn(C)c(C)c2Cl)n[nH]c1=S 48.6%
Cc1ccc(CCNC(=O)c2ccc3c(c2)N(Cc2ccccc2F)C(=O)c2ccccc2S3=O)cc1 (centres undefined) 7.24%
Cc1ccc(-c2ccc3c(c2)O[C@H](CN(C)Cc2cncnc2)[C@@H](C)CN([C@H](C)CO)S3(=O)=O)cc1 31.5%
Cc1cc(C)n2nc(NCc3cccc(Br)c3)nc2n1 8.97%
Cc1onc(-c2ccccc2)c1C(=O)NCC(O)c1ccccc1 (centres undefined) -8.91%
COc1cc(NS(=O)(=O)c2c(C(=O)N3CCCCC3)c(C)n(C)c2C)cc(OC)c1OC 4.69%
O=C(CN(C1CCCCC1)S(=O)(=O)c1ccc(F)cc1)NCC1CCCO1 (centres undefined) 0.881%
CCC(C)c1ccc(-n2c(=O)c3ccccc3n3c(=S)[nH]nc23)cc1 (centres undefined) 8.64%
O=C1C(NS(=O)(=O)c2cccs2)=C(N2CCOCC2)C(=O)c2ccccc21 -20.5%
CC1CCCCN1C/C=C/c1ccccc1[N+](=O)[O-] (centres undefined) 10.6%
O=[N+]([O-])c1ccc(CSCc2ccc([N+](=O)[O-])cc2)cc1 8.6%
CCn1c(C)nc2cc(S(=O)(=O)C(F)(F)C(F)C(F)(F)F)ccc21 (centres undefined) 2.63%
Cc1ccccc1C(=O)N/N=C1/SCC(=O)N1Cc1ccccc1 -11.8%
Cc1ccc(N(CC(=O)NCCSc2ccccc2)S(=O)(=O)c2ccc(F)cc2)cc1 -5.07%
O=C(NC(NC(=O)c1ccccc1)c1cccc([N+](=O)[O-])c1)c1ccccc1 10.5%
CCOCCCNC(=O)C(=O)Nc1c2c(nn1-c1ccccc1)CSC2 -3.45%

Potency, inconclusive:
Cc1cccc(/C=N\NC(=O)c2ccc(Cl)cc2)c1O 0.794 µM [inhibitor, full curve, poor fit]
COc1ccc(NS(=O)(=O)c2cccc(C(=O)NCC3(N(C)C)CCCCC3)c2)cc1 28.2 µM [inhibitor, single point]
Fc1ccc(-c2csc(=Nc3cccc(C(F)(F)F)c3)n2Cc2ccc3c(c2)OCO3)cc1 11.2 µM [inhibitor, partial curve, poor fit]
CCc1ccc(C(=O)NC(=S)Nc2ccccc2N2CCOCC2)cc1 3.16 µM [inhibitor, full curve]
CCOc1cccc(-c2c(C(=O)N/N=C/c3c(F)cccc3Cl)nnn2-c2nonc2N)c1 28.2 µM [inhibitor, single point]
Cc1ccccc1-c1noc(-c2ccccc2C(=O)N2CCCC2)n1 31.6 µM [inhibitor, partial curve, poor fit]
Cc1cc(C)c(C(=O)Nc2ccc(Br)c(C(F)(F)F)c2)c(C)c1 10 µM [inhibitor, partial curve, poor fit]
COc1ccc2c(c1)/C(=C\c1cccc(/C=C3/C(=O)Nc4ccc(OC)cc43)n1)C(=O)N2 1.26 µM [inhibitor, full curve, poor fit]
Cn1nnnc1SCCCNCc1cc(Br)ccc1OCc1ccccc1F 15.8 µM [inhibitor, single point]
CCOC(=O)c1cnc(-n2nc(C)cc2C)nc1NC 11.2 µM [inhibitor, single point]
O=C1OC2(c3ccccc31)c1ccccc1-c1ccccc12 12.6 µM [inhibitor, partial curve, poor fit]
CCCCCCC(C)NC(=S)Nc1cc(S(=O)(=O)N(C)C)ccc1C (centres undefined) 7.94 µM [inhibitor, partial curve, poor fit]
C/C(=N\NC(=S)NC(C)C)c1ccccc1OC(F)F 22.4 µM [inhibitor, partial curve, poor fit]
c1ccc(-c2nnsc2-c2ccccc2)cc1 7.08 µM [inhibitor, partial curve, poor fit]
Cc1ccc(-n2cc(CN(C)Cc3nccn3C)c(-c3ccc(F)cc3)n2)cc1 10 µM [inhibitor, partial curve, poor fit]
CCOc1ccc(C(=O)Nc2cccc([N+](=O)[O-])c2)cc1Br 4.47 µM [inhibitor, partial curve]
CC(=O)N1N=C(c2ccccc2OC(=O)/C=C/c2ccccc2)CC1c1ccccc1 (centres undefined) 11.2 µM [inhibitor, partial curve, poor fit]
CCCn1c2ccccc2c2cnn(CC(=O)NCCCN(CC)c3ccccc3)c(=O)c21 11.2 µM [inhibitor, partial curve, poor fit]
O=C(Nc1ncc(Cc2ccccc2Cl)s1)c1ccc(-c2cccc([N+](=O)[O-])c2)o1 3.16 µM [inhibitor, full curve, poor fit]
CN(C)n1cccc1/C=C(\C#N)S(=O)(=O)c1ccc(Cl)cc1 11.2 µM [inhibitor, single point]
CC(C)c1ccc(C(=O)COC(=O)C(O)c2ccccc2)cc1 (centres undefined) 28.2 µM [inhibitor, single point]
Cc1ccnc(OC(C(=O)O)C(OCc2ccccc2)(c2ccc(F)cc2)c2ccc(F)cc2)n1 (centres undefined) 10 µM [inhibitor, partial curve, poor fit]
Cc1ccc(OCCN(C)C(=O)C2CCC(=O)N(CC3CCCCC3)C2)cc1 (centres undefined) 11.2 µM [inhibitor, single point]
Cc1cc(C)cc(CC(Cc2nc3ccccc3[nH]2)c2nc3ccccc3[nH]2)c1 (centres undefined) 28.2 µM [inhibitor, single point]
O=C(NCC(c1ccco1)N1CCN(c2ccccc2F)CC1)c1ccc2c(c1)OCO2 (centres undefined) 10 µM [inhibitor, partial curve, poor fit]
Cc1nn(-c2nc3ccccc3s2)c(C)c1Oc1ccccc1O 11.2 µM [inhibitor, single point]
CCOC(=O)c1nnc(-c2ccccc2)nc1NCc1ccccc1 5.01 µM [inhibitor, single point]
O=C(c1ccc(S(=O)(=O)Cc2ccccc2Cl)c([N+](=O)[O-])c1)N1CCOCC1 20 µM [inhibitor, single point]
COc1cccc(CN2CCN(Cc3ccc(C#CC(C)(C)O)s3)CC2CCO)c1 (centres undefined) 10 µM [inhibitor, single point]
Cc1ccc(CNC(=O)C(c2ccccc2)c2ccccc2)cc1 1.26 µM [inhibitor, full curve, poor fit]
Cc1ccc2nc(NC(=O)CN3C(=O)NC4(CCCCC4)C3=O)sc2c1 5.62 µM [inhibitor, full curve, poor fit]
COc1ccc(-c2cc(C(=O)N(C)CC(=O)Nc3ccccc3C(F)(F)F)c3ccccc3n2)cc1OC 28.2 µM [inhibitor, single point]
COc1ccccc1Oc1ncnc2c1oc1ccccc12 5.01 µM [inhibitor, partial curve, poor fit]
Cc1ccc(Cl)cc1-n1ncc2c(Nc3ccc4c(c3)OCCO4)ncnc21 8.91 µM [inhibitor, partial curve, poor fit]
O=C(COc1ccc(Br)cc1)N1CCN(S(=O)(=O)/C=C/c2ccccc2)CC1 10 µM [inhibitor, partial curve, poor fit]
O=C(c1ccc2c(c1)N(Cc1c(F)cccc1Cl)C(=O)c1ccccc1S2)N1CCCC1 8.91 µM [inhibitor, partial curve, poor fit]
COc1ccc(N=C2SC(CC(=O)Nc3cccc(Cl)c3)C(=O)N2Cc2ccco2)cc1 (centres undefined) 6.31 µM [inhibitor, partial curve]
Cc1ccc(C)n1-n1c(C)nc2sc(-c3ccccc3)cc2c1=O 28.2 µM [inhibitor, single point]
Cc1cc(C(=O)COC(=O)c2ccc3c(c2)OCO3)c(C)n1CC1CCCO1 (centres undefined) 5.62 µM [inhibitor, partial curve, poor fit]
O=S(=O)(/N=C(/Nc1cccc2ccccc12)c1ccc(F)cc1)c1ccccc1 11.2 µM [inhibitor, partial curve, poor fit]
CCOc1nc(Nc2ccc(F)cc2)nc(N2CCN(c3ccc(OC)cc3)CC2)n1 3.55 µM [inhibitor, single point]
CCOP(=O)(OCC)c1nc(-c2ccc(Cl)cc2Cl)oc1N1CCCCC1 3.98 µM [inhibitor, partial curve, poor fit]
Cc1ccccc1OCC(=O)Nc1ccccc1N1CCCCC1 28.2 µM [inhibitor, single point]
Cc1ccc2cc(C)c(SCC(=O)NCc3ccco3)nc2c1 20 µM [inhibitor, single point]
Cc1ccc(-c2nc(NC(=O)c3nn(C)cc3[N+](=O)[O-])sc2C)cc1 10 µM [inhibitor, partial curve, poor fit]

Potency, active:
COc1cc(/C=N/NS(=O)(=O)c2ccc3ccccc3c2)ccc1OCc1ccc(C(=O)O)cc1 2.51 µM
Cc1ccnc(Nc2nc3ccccc3o2)n1 2.51 µM
